From PubChem BioAssay AID761 (NMMLSC, 2007)
Out of some 190,000 compounds screened, about 400 (0.21%) were called active. Inconclusive means that the source gave no clear call. Such entries were picked first, then a sample of the others.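 How the source made its calls: active means percent activity GTP binding at least 20 points away from the 100% baseline, either down as inhibitor or up as activator; inconclusive means compound flagged as likely green fluorescent from well-wide comparison; inactive means the rest.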

These compounds were tested against Cell division control protein 42 homolog (Homo sapiens) (UniProt P60953) (assay: wildtype Cdc42 fluorescent GTP binding changes, either direction – biochemical, multiplex bead flow cytometry, Bodipy-GTP, primary screen (AID 761;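 further: median bead fluorescence of bound Bodipy-FL-GTP at 100 nM; 0% = excess unlabeled GTP control and 100% = no compound control; below 100% means less GTP binding so inhibitor and above means activator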)). Details: GST-Cdc42 beads, at 10 µM, actives lie on both sides.
Chain of UniProt P60953 (P60953 whole entry, looked up): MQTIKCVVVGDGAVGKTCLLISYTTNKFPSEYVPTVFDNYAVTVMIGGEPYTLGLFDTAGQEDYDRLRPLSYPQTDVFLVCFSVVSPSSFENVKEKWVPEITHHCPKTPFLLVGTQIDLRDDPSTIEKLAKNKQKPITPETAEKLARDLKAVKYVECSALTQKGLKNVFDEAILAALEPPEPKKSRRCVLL

SMILES	percent activity (GTP binding)
COc1ccc(NC(=O)CSc2ccc3nnc(-c4cccnc4)n3n2)c(OC)c1	inactive: 80%
CCCN(CCC)CCCNC(=S)Nc1ccc2nc(N3CCCC3)cc(C)c2c1	inconclusive: 93%
Cn1cccc1/C=C1\SC(=S)N(NC(=O)c2cccc(Cl)c2)C1=O	inconclusive: 98%
Cn1c(NC(=S)Nc2ccccc2)nc2ccccc21	inconclusive: 115%
FC(F)(F)c1cccc(OCCN2CCN(Cc3ccccc3)CC2)c1	inactive: 97%
Cc1cccc(C)c1OCc1n[nH]c(=S)n1N	inconclusive: 97%
CC1=C(C#N)c2nc(N)c(C#N)c(C)c2/C1=C\c1ccc(-c2ccccc2C(=O)O)o1	active: 78%
O=[N+]([O-])c1ccc(OCc2cnc(Cl)s2)c([N+](=O)[O-])c1	inactive: 93%
Cc1cc(C)n(CCNC(=O)CC2C(=O)NCCN2CC2CCCCC2)n1 (stereo not drawn)	inactive: 99%
COc1ccc2ccccc2c1CN1CCN(Cc2ccccc2)CC1	inconclusive: 105%
CCCCN(C(=O)CSc1cc(C)c2ccccc2n1)c1c(N)n(Cc2ccccc2)c(=O)[nH]c1=O	inconclusive: 104%
CC(=O)OCC#CCSc1nc2ccccc2n1C	inconclusive: 103%
CC(C)(O)C#Cc1ccc(C(=O)NCCc2ccc(S(N)(=O)=O)cc2)cc1	inconclusive: 93%
CCCN(CCC)c1ccc(C(O)c2nnc(-c3ccccc3)o2)cc1 (stereo not drawn)	inactive: 95%
Cc1cc(=O)nc2c3ccccc3n(C(C)C(=O)Nc3c(F)c(F)c(F)c(F)c3F)n12 (stereo not drawn)	inconclusive: 92%
COc1ccc(C(=O)C2CCCN(S(=O)(=O)C(C)C)C2)c(C)c1 (stereo not drawn)	inactive: 94%
COc1cccc(-c2nnc3sc(-c4ccco4)nn23)c1	inactive: 107%
Cc1ccc2cc3c(NC(=O)C4CCCO4)nn(CC(C)C)c3nc2c1 (stereo not drawn)	inconclusive: 106%
COc1ccc(-c2csc(C3=C(O)CN(C(C)C)C3=N)n2)cc1OC	active: 73%
COc1ccccc1NC(=O)c1ccc(-c2ccc(Br)cc2)o1	inconclusive: 91%
C/C(=C/C(=O)O)C(=O)Nc1cccc(C(F)(F)F)c1	inactive: 96%
O=C(Nc1cccc(F)c1)NC1CC2CCCC(C1)N2C1CC1 (stereo not drawn)	inconclusive: 107%
Cc1ccc(S(=O)(=O)N2CC3(C)CN(S(=O)(=O)c4ccc(C)cc4)CC(C)(C2)C3O)cc1 (stereo not drawn)	active: 126% [activator]
Fc1ccccc1NC(=S)N1CCN(Cc2ccccc2)CC1	inconclusive: 104%

SMILES	percent activity (GTP binding)
Cc1cc(Nc2ccc(F)cc2)n2nc(C)nc2n1	inconclusive: 104%
Cc1ccc(S(=O)(=O)N2CCC(C(=O)NNC(=O)c3ccc(F)cc3)CC2)cc1	inactive: 97%
CSCCC(NC(=O)c1ccccc1)C(=O)O (stereo not drawn)	inconclusive: 94%
C=CCNC(=O)c1cc(Cl)ccc1Cl	inconclusive: 107%
Cc1sc2ncnc(Sc3ccccc3C(=O)O)c2c1C	active: 137% [activator]
Brc1ccc(Nc2nc3ccccc3n3nnnc23)cc1	inconclusive: 102%
O=C(O)CCN1CCc2ccccc2C1c1cccs1 (stereo not drawn)	inactive: 110%
CCN(CC)c1ccc(/C=C(\C#N)c2nc(-c3cccs3)c(NC(C)=O)s2)cc1	inconclusive: 120%
CC(C)(C)C(=O)OCC1OC(n2cnc(C(N)=O)n2)C(O)C1O (stereo not drawn)	inactive: 119%
CN(C)/C=N/c1nc2nccc(-c3cccs3)n2n1	inconclusive: 94%
COc1ccccc1CN1C[C@@H]2C[C@@H](c3ccc(C)c(C)c3)N3CCC[C@@]23C1=O	inconclusive: 93%
CC1(C)Cc2c(oc3ncn4ncnc4c23)CO1	inconclusive: 110%
O=C(Nc1nc2ccccc2[nH]1)c1ccc(F)cc1	inactive: 103%
CSc1nnc(-c2cc(Br)ccc2N=Cc2c(C)[nH]n(-c3ccccc3)c2=O)c(=O)[nH]1	active: 78%
CCN(CC)S(=O)(=O)c1cc([N+](=O)[O-])ccc1N=Nc1c(O)[nH]c2ccccc12	inconclusive: 130%
N#C/C(=C/c1ccc(N2CCCCCC2)o1)c1ccc(Cl)cc1	inconclusive: 131%
CCN(C(=O)CSc1nc2ccccc2c(=O)n1C(C)COC)C1CCS(=O)(=O)C1 (stereo not drawn)	inactive: 96%
CC(C)CCN1CCN(Cc2ccc(N3CCNC3=O)cc2)CC1CCO (stereo not drawn)	inactive: 96%
COc1ccc(-c2nc(NC(=O)Cn3cnnn3)sc2C)cc1	inconclusive: 95%
COc1ccc(N2C(=O)C3C(c4ccc(C(=O)O)cc4)NC(Cc4ccccc4)(C(=O)O)C3C2=O)c([N+](=O)[O-])c1 (stereo not drawn)	inactive: 98%
CCOC(=O)c1c2ccc(OCC(=O)N/N=C/c3ccc(C)cc3)cc2n2ccccc12	inconclusive: 89%
CC(C)[C@H](NC(N)=O)C(=O)Nc1ccc(F)c(Cl)c1	inconclusive: 92%
C=CCn1c(SCc2nnc(-c3ccccc3)o2)nnc1C(O)c1ccccc1 (stereo not drawn)	inconclusive: 104%
COc1cc(OC)c(/C=N/NC(N)=S)cc1Br	inconclusive: 94%

SMILES	percent activity (GTP binding)
COc1ccc(OC)c(NC(=O)CSc2nnc(C3CCCCC3)o2)c1	inactive: 98%
CNC(=O)c1cc(C(=O)c2ccccc2C(F)(F)F)c[nH]1	inconclusive: 87%
Cc1nccc(-c2ccc(-n3c(C)ccc3C)cc2)n1	inactive: 93%
O=C1CCCN1c1ccc(S(=O)(=O)Oc2cccc(Cl)c2)cc1[N+](=O)[O-]	inconclusive: 107%
O=S(=O)(c1cccc2cccc(Cl)c12)N1CCCC1	inconclusive: 95%
C=CCN(CC=C)S(=O)(=O)c1ccc(C(=O)Nc2sc3c(c2C(N)=O)CCCCC3)cc1	inactive: 104%
CCC(COC(=O)Nc1ccccc1)NC(=O)OC(C)C (stereo not drawn)	inactive: 99%
COc1cc(NC(=O)CC2NCCNC2=O)cc(OC)c1 (stereo not drawn)	inactive: 97%
Cc1ccc(-c2nnc(SCC(=O)Nc3nccs3)n2N)cc1	inactive: 98%
Cc1cc(C)n(CCCNC(=O)c2ccc(S(=O)(=O)NCc3ccco3)cc2)n1	inconclusive: 102%
COCCNc1ncnc2nc[nH]c12	inconclusive: 106%
CCC(C)N1C(=O)/C(=C/c2c(NCCCOC(C)C)nc3c(C)cccn3c2=O)SC1=S (stereo not drawn)	inconclusive: 196%
Cc1onc(-c2ccccc2Cl)c1C(=O)Nc1sc2c(c1C(N)=O)CCC(C)C2 (stereo not drawn)	inactive: 101%
COc1ccccc1CN1CCNC(=O)C1CC(=O)NCc1c(C)n[nH]c1C (stereo not drawn)	inconclusive: 101%
Cc1ccc(NC(=O)CN2C(=O)NC3(CCc4ccccc43)C2=O)cc1Cl (stereo not drawn)	inconclusive: 103%
COc1ccc(OCCSc2nc(N)cc(N)n2)cc1	inconclusive: 91%
Cc1nnc(SCc2nc3ccccc3s2)n1-c1ccccc1	inconclusive: 107%
O=c1[nH]c2ccc(Cl)cc2c(O)c1Cc1ccccc1	inconclusive: 86%
Cn1c(=S)n(/N=C/c2ccc3c(c2)OCO3)c2ccccc21	inconclusive: 108%
CN(C(=O)Cn1cccc1C1=NC(c2ccccc2)CO1)c1ccccc1 (stereo not drawn)	inactive: 97%
CCOc1ccc(-c2cc(C(=O)Nc3ccc4c(c3)OCCO4)c3ccccc3n2)cc1	inconclusive: 93%
COc1ccc(C2=Nn3c(nnc3-c3ccccn3)SC2)cc1OC	inconclusive: 77%
CCOC(=O)N1CCc2c(sc3nc4n(c(=O)c23)N=C(C)CS4)C1	inactive: 99%
COC(=O)[C@H](C)NC(=O)Nc1ccc(Oc2ccccc2)cc1	inconclusive: 109%

SMILES	percent activity (GTP binding)
Cc1ccc(C)n1-c1ccc(C(=O)NN=C2CCCC2)cc1	inconclusive: 109%
O=C(NCc1ccco1)C(=O)c1cn(CC(=O)N2CCCCCC2)c2ccccc12	inactive: 94%
CCOC(=O)N1CCN(Cc2cn[nH]c2-c2cc3ccccc3o2)CC1	inconclusive: 41%
COc1ccc(C2CC(c3cccs3)=NN2C(=O)CSc2nncs2)cc1OC (stereo not drawn)	inconclusive: 90%
CCC(C)NS(=O)(=O)c1ccc(NC(=O)c2ccc([N+](=O)[O-])cc2Cl)cc1 (stereo not drawn)	inactive: 99%
CCOC(=O)C1(Cc2cccc(F)c2)CCN(C(=O)c2cnc(C)cn2)CC1	inactive: 97%
O=C(/C=C/c1ccccc1)NC1CCCc2ccccc21 (stereo not drawn)	inactive: 99%
Cc1csc(NC(=O)c2cc(-c3ccncc3)nc3ccccc23)n1	inconclusive: 94%
NC(=O)c1c(NC(=O)c2cnccn2)sc2c1CCCC2	inactive: 82%
NC(=O)C(=O)N/N=C/c1c[nH]c2ccc(Br)cc12	inconclusive: 88%
CC(C)n1cc(/C=C2\NC(=O)N(c3cccc(Cl)c3)C2=O)c2ccccc21	inconclusive: 109%
O=C(NCC1CCN(c2ccc(S(=O)(=O)N3CCOCC3)cc2)CC1)c1cccc(Cl)c1	inconclusive: 105%
CCC(=O)Nc1cc(C(=O)OCC(=O)c2ccc(Cl)cc2Cl)ccc1C	inconclusive: 104%
COCCNC(=O)Cn1cc(C(=S)N2CCOCC2)c2ccccc21	inactive: 99%
COc1ccc(-n2c(C)cc(/C=C3\SC(=S)N(Cc4ccco4)C3=O)c2C)cc1	inconclusive: 119%
C=CCc1ccccc1OCC(O)CN1CCN(C(=O)OCC)CC1 (stereo not drawn)	inconclusive: 114%
CC(=O)Nc1ccccc1NC(=O)c1cc(C)cc(C)c1	inactive: 98%
CC(=O)N1CCc2cc(Br)cc(S(=O)(=O)N3CCN(C(=O)c4ccco4)CC3)c21	inconclusive: 109%
CSCC[C@H](NC(=O)NCc1ccc(F)cc1)C(=O)O	inconclusive: 108%
CC1=Nc2ccccc2/C1=C\c1sc(Nc2ccc(C)cc2)nc1O	inconclusive: 93%
COc1cccc(N2CCN(C(=O)CSc3ccc(F)cc3)CC2)c1	inactive: 98%
